Measurements taken from PMC8565811.
These are yes or no findings as the source states them, for the method shown. For some of these results: In cells and extracts the contact can be indirect. Some binding calls cover weakened binding; strength is not graded here. For some of these results: Sequences can lack the tags named with a protein.

By UniProt entry, the sequences of proteins in these tests, tags left out. Where a name states a change or a piece, a line headed by the entry shows the natural chain unless it says otherwise.
UniProt Q9AJW7: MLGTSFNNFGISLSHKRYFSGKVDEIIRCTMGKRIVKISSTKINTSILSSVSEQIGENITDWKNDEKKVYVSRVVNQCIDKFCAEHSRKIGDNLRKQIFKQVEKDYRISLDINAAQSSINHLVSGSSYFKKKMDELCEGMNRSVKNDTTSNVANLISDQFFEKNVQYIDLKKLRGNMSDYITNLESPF
UniProt Q92556: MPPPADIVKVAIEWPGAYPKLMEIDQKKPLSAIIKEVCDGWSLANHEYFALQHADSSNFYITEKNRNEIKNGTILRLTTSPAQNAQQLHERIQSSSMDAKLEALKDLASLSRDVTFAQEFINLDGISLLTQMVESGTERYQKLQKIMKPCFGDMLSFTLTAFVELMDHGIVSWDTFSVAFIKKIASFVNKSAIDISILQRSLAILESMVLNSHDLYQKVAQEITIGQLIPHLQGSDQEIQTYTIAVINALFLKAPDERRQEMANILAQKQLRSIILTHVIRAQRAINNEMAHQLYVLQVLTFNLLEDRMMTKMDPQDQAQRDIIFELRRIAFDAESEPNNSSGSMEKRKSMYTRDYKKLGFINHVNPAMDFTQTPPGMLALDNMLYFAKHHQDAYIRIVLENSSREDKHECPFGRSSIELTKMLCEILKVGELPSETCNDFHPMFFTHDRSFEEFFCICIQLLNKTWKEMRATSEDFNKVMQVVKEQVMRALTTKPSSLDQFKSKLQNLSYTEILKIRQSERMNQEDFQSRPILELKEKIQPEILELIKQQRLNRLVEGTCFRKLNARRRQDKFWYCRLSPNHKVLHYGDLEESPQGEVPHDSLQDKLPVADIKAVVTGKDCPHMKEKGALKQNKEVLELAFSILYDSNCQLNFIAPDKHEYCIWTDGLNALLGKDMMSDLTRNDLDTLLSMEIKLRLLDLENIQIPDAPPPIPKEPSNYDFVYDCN
UniProt Q8BPU7: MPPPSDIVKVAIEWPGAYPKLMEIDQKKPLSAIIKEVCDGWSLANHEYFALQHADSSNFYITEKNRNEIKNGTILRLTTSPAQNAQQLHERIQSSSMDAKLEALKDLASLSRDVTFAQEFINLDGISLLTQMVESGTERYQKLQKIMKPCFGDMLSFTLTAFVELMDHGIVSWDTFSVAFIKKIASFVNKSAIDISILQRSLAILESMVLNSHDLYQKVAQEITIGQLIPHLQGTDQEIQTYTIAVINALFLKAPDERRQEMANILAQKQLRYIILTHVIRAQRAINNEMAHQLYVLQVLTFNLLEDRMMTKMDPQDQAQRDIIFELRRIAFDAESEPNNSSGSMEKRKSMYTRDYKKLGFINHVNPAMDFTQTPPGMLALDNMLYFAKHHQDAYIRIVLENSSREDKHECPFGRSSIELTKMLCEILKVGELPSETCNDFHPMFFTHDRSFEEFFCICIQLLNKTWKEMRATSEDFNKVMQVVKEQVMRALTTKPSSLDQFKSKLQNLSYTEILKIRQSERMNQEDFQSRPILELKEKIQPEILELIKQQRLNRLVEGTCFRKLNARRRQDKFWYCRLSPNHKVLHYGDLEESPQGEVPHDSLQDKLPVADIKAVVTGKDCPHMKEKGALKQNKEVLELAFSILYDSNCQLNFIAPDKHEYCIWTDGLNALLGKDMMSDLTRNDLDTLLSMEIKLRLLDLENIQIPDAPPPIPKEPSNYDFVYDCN

Tests used:
[1] = biological target: T1, EGFP-SifA wild type (Salmonella) (UniProt Q56061); test: co-IP; HEK293 co-transfected with EGFP-SifA (WT or E201A) and FLAG-ELMO1; lysates precipitated with EGFP-conjugated beads; blot with anti-FLAG
T1 sequence: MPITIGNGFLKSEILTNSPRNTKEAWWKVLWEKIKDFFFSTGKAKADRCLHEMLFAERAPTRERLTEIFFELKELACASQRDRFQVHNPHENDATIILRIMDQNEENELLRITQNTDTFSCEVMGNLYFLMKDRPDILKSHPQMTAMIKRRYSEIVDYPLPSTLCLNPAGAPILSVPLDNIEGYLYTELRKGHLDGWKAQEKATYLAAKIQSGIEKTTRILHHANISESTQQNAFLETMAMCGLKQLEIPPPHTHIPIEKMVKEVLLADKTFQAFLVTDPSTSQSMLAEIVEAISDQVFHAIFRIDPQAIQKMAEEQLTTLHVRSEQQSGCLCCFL

GST-SifA (Salmonella) [2] = biological target: T2, GST-SifA (Salmonella) (UniProt Q56061); test: pull-down; GST-SifA immobilised on glutathione-Sepharose beads, incubated with lysates of HEK293 cells transfected with FLAG-ELMO1 FL, NT or CT; blot with anti-FLAG; only the target purified
T2 sequence: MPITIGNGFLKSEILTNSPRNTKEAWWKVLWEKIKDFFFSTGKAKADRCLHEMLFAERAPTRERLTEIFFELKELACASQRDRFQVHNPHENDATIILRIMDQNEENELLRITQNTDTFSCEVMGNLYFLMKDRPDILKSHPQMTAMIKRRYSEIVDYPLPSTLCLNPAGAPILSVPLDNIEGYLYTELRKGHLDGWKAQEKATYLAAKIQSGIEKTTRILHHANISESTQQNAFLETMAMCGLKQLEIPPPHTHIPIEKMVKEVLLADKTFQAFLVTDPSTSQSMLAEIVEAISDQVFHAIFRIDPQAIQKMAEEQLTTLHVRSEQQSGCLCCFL

GST-SifA (Salmonella) [3] = biological target: T2, GST-SifA (Salmonella); test: pull-down; GST-SifA immobilised on glutathione-Sepharose beads, incubated overnight at 4°C with lysates of J774 control or ELMO1 shRNA cells or of BMDM; washed with NETN buffer (300 mM NaCl); blot with anti-ELMO1; only the target purified
GST-IpgB2 (Shigella) = GST-IpgB2 (Shigella) (UniProt Q9AJW7); test: pull-down; GST, GST-IpgB1, GST-IpgB2 or GST-Map immobilised on glutathione-Sepharose beads, incubated with purified recombinant His-ELMO1 full length; bound ELMO1-FL seen by immunoblot; both purified
GST-ELMO1 = GST-ELMO1 (UniProt Q92556); test: pull-down; GST-ELMO1 or GST alone immobilised on glutathione-Sepharose beads, incubated overnight at 4°C with purified His-SifA WT or E201A; GST wash buffer (100 mM NaCl); blot with anti-His; both purified

FLAG tagged ELMO1-full length (FL) (aa 1-727) (from UniProt Q92556 1-727)
binding [1]: binds | binding (GST-SifA (Salmonella) [2]): binds

FLAG tagged ELMO1- N terminal (NT) (aa-1-532) (from UniProt Q92556 1-532) (domain or fragment)
binding (GST-SifA (Salmonella) [2]): no binding

endogenous ELMO1 of murine macrophages (from UniProt Q8BPU7 1-727)
binding (GST-SifA (Salmonella) [3]): binds

FLAG tagged ELMO-1- C terminal (CT) (aa-532-727) (from UniProt Q92556 532-727) (domain or fragment)
binding (GST-SifA (Salmonella) [2]): binds

Recombinant His-ELMO1-full length (FL) (from UniProt Q92556 1-727)
binding (GST-IpgB2 (Shigella)): binds

B1: His-SifA WT (protein, UniProt Q56061 1-336)
chain: MPITIGNGFLKSEILTNSPRNTKEAWWKVLWEKIKDFFFSTGKAKADRCLHEMLFAERAPTRERLTEIFFELKELACASQRDRFQVHNPHENDATIILRIMDQNEENELLRITQNTDTFSCEVMGNLYFLMKDRPDILKSHPQMTAMIKRRYSEIVDYPLPSTLCLNPAGAPILSVPLDNIEGYLYTELRKGHLDGWKAQEKATYLAAKIQSGIEKTTRILHHANISESTQQNAFLETMAMCGLKQLEIPPPHTHIPIEKMVKEVLLADKTFQAFLVTDPSTSQSMLAEIVEAISDQVFHAIFRIDPQAIQKMAEEQLTTLHVRSEQQSGCLCCFL
binding (GST-ELMO1): binds
